Measured values published in PMC4336329 (PLoS ONE, 2015).
Among all 310,000 compounds or so, about 14,000 (4.5%) showed an effect of 50% or more. The effect is printed as a negative number. The list shows a part of the results.

Target: human ether-à-go-go-related gene (hERG) potassium channel (human, UniProt Q12809)
Test: primary screen, population patch clamp on CHO cells stably expressing hERG
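Also: peak tail current of the secondary pulse compared with the same well before compound.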

human ether-à-go-go-related gene (hERG) potassium channel, sequence (Q12809 whole entry, looked up): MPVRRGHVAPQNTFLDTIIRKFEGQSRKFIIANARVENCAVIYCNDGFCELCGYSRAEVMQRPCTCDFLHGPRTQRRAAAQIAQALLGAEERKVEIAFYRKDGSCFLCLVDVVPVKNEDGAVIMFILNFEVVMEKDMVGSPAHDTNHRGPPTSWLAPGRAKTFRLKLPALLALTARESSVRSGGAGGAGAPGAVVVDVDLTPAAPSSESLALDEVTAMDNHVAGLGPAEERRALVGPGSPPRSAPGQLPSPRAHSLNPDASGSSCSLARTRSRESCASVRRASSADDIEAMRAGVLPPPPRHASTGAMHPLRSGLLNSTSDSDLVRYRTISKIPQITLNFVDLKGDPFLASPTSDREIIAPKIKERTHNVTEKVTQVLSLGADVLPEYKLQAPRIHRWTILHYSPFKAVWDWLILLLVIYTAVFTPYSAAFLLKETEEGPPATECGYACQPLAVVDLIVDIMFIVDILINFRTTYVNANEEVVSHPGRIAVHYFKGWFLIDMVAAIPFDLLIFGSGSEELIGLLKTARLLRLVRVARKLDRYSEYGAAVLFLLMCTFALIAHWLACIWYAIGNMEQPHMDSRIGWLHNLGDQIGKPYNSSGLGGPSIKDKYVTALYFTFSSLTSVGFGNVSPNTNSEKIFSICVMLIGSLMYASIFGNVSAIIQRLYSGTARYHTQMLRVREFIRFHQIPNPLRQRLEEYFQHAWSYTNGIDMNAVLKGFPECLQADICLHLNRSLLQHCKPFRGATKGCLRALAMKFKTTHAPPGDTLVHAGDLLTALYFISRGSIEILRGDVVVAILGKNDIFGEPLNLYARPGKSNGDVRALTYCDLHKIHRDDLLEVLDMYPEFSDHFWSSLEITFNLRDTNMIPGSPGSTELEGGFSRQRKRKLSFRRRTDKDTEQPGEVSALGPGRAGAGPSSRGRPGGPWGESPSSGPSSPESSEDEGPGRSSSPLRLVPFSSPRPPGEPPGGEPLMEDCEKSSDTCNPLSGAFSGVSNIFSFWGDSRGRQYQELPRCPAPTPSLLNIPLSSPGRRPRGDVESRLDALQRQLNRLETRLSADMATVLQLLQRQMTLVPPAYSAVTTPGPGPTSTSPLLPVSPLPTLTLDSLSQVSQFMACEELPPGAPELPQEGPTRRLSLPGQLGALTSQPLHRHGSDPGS

Structure (SMILES) | hERG current change (%, negative = inhibition) at 10uM
CCOc1ccc(N=Nc2c(C)noc2C)cc1 | 15.2%
O=C(COc1ncnc2ccccc12)c1ccc2c(c1)OCCO2 | 9.19%
O=C(CSc1nnc(Cn2c(=O)sc3ccccc32)n1-c1ccccc1)N1CCCCCC1 | -12.5%
Nn1c(SCC(=O)Nc2ccc3c(c2)OCCO3)nnc1C(F)(F)F | 11.6%
Cc1noc(C)c1C(=O)OCC(=O)Nc1ccc(S(N)(=O)=O)cc1 | -14.9%
Cc1ccc(CCNC(=O)C2CCCN(S(=O)(=O)N3CC(C)CC(C)C3)C2)cc1 (stereo not shown) | 21.5%
CCC(=O)c1ccc(OCC(=O)Nc2ccccc2C(=O)N2CCCCC2)cc1 | 2.77%
COc1ccc(N(CC(=O)Nc2ccc(S(=O)(=O)N3CCOCC3)cc2)S(=O)(=O)c2ccc(F)cc2)cc1 | 4.34%
CSCC[C@H](NC(=O)COc1ccc(Cl)cc1Cl)c1nc2ccccc2[nH]1 | 14.7%
CCOc1ccc(C(=O)OCCCN(C)C)cc1 | -14.4%
CC1(C)OC(=O)C(=NNc2ccc(O)cc2)C(=O)O1 | 15.1%
O=S(=O)(c1ccc(NCC2CCCCC2)nc1)N1CCOCC1 | -16.6%
Cc1ccc(NC(=O)CNC2CCCCC2)cc1Cl | 6.64%
O=C(CCc1ccccc1)Nc1ccc(NC(=O)c2ccco2)nc1 | -2.8%
Cc1ccc(NC2=C/C(=N\S(=O)(=O)c3cccs3)c3ccccc3C2=O)c(C)c1 | 4.7%
O=C1CC(SC(=Nc2ccccc2)Nc2ccccc2)C(=O)N1c1cccc(Cl)c1 (stereo not shown) | -5.58%
O=C(CNC(=S)N(Cc1ccccc1Cl)C1CCCC1)NCCN1CCOCC1 | -9.19%
CC(C)OC(=O)CSc1nnc(-c2cnccn2)n1C | 7.97%
CCOc1ccc2c(c1)c(N=NC(=N)N)c(O)n2C | -6.2%
Cc1nc(NC(=O)COC(=O)CCc2nc3ccccc3s2)c(Cl)cc1Cl | 22.4%
NS(=O)(=O)c1ccc(NC(=O)CSc2ncn[nH]2)cc1 | 10.7%
O=C(NNc1ccc(Cl)cc1)C1CCC1 | 16.6%

Structure (SMILES) | hERG current change (%, negative = inhibition) at 10uM
O=C(NCCCN1CCOCC1)c1cc2c(s1)CSC2 | 3.93%
C#CCOC(=O)c1csc2nnsc12 | -6.28%
CCOC(=O)N1CCN(c2c(NCCc3ccc(OCC)c(OCC)c3)c(=O)c2=O)CC1 | -4.22%
CCn1c(SCC(=O)Nc2ccc(OC)c(OC)c2)nnc1-c1cccs1 | -14.1%
CCc1ccc(NC(=O)C(C)Sc2ccc(S(=O)(=O)N3CCN(C)CC3)cn2)cc1 (stereo not shown) | -29.4%
CC(=Nc1ccccc1)Nc1ccccc1 | -4.05%
CCCC1=Nc2cc(C(=O)NCCCN3CCOCC3)ccc2Sc2ccccc21 | -9.32%
CCOC(=O)c1c(C)[nH]c(C(=O)NNC(=O)c2ccc(C(C)(C)C)cc2)c1C | -2.61%
Oc1ccc(Oc2ncc(Cl)cc2Cl)cc1 | -12.5%
N#CC1=C(N)N(c2ccccc2C#N)C2=C(C(=O)CCC2)C1c1ccsc1 (stereo not shown) | -19.5%
COc1ccc2c(c1)SC1=NCCS(=O)(=O)N12 | 0.987%
COc1cc(NC(=O)c2ccc(Cl)cc2Cl)ccc1-c1cc2ccccc2oc1=O | -5.94%
COc1ccc(C(=O)N2CCOC2CNC(=O)C(=O)NCCc2ccc(OC)c(OC)c2)cc1 (stereo not shown) | -8.61%
CCN(CC)CCNC(=O)NC1CCCCC1 | 20.3%
Cc1cc(C)c(NC(=S)N(CCN(C)C)Cc2cccs2)c(C)c1 | -13.4%
COc1ccc(OC)c(-n2nnnc2SCC(=O)Nc2ccc3c(c2)OCCO3)c1 | 13.2%
CC(C)CCNC(=O)c1onc(CSc2ccc(F)c(F)c2)c1C(=O)NCCC(C)C | 5.79%
COc1ccc(/C=N/NC(=O)c2ccc(Br)o2)cc1Cn1cc([N+](=O)[O-])cn1 | -39.1%
CCCc1cc(=O)[nH]c(Nc2ccc(Cl)cc2)n1 | 6.28%
CC(=O)Nc1cccc(C(=O)OCC(=O)c2ccc3c(c2)OCO3)c1 | 7.2%
Nc1nc2ccc(C(=O)NC3CCCCC3)cc2s1 | 5.84%
O=C(Nc1nnc(-c2ccc3c(c2)CCCC3)o1)c1c(F)cccc1F | 0.248%

Structure (SMILES) | hERG current change (%, negative = inhibition) at 10uM
CCCNS(=O)(=O)c1ccc(CCC(=O)N2CCN(CC)CC2)cc1 | -1.72%
CCOc1ccc(N(C)S(=O)(=O)c2ccc(C)c(C(=O)NCc3cccs3)c2)cc1 | -7.89%
CCC(C(=O)Nc1ncc(C)s1)c1ccccc1 (stereo not shown) | 31.4%
CCOC(=O)N1CCC(=NNC(=O)COc2cccc(C)c2)CC1 | 7.01%
COc1ccc(CCNC(=O)c2cc3c(=O)n(C)c4ccccc4c3n2C)c(OC)c1 | 3.27%
COc1ccc(C(=S)Nc2ccc(N(C)C)cc2)cc1 | 16.6%
COc1ccc(C2=NS(=O)(=O)N(C)C(C(=O)NC3CCCCC3)=C2)cc1OC | -9.09%
O=C(COc1ccc(Cl)cc1Cl)NC(=O)N1CCCCC1 | -24.1%
Cc1ccccc1-n1nc2c(c1NC(=O)C(C)C)CS(=O)(=O)C2 | 25.5%
O=C(CCc1c[nH]c2ccccc12)Nc1ccc(S(=O)(=O)Nc2ncccn2)cc1 | 10.1%
O=[N+]([O-])c1cc2c(c(CSc3ncccn3)c1)OCOC2 | 21.7%
O=C(OCc1nc2ccccc2s1)c1cc2ccccc2oc1=O | 0.991%
COCC(=O)Nc1c(C(=O)Nc2cccc(OC)c2)oc2ccccc12 | 13.9%
CSc1ccc(CN(C)CC(=O)Nc2ccc(NC(C)=O)cc2)cc1 | -25.8%
Cc1[nH]c(C)c(S(=O)(=O)N2CCc3ccccc32)c1C(=O)N1CCCCC1 | 14.6%
CC(Oc1ccc(Br)cc1Cl)C(=O)Nc1ccncc1 (stereo not shown) | -29.7%
COc1ccc(CC(=O)Nc2ccc(C#N)c(Cl)c2)cc1S(=O)(=O)N1CCOCC1 | -68.1%
CCCn1c(N)c(C(=O)CN(C)CC(=O)Nc2ccccc2CC)c(=O)[nH]c1=O | -42%
COCCn1c(-c2ccc(F)cc2)nc2oc3cc(OC)ccc3c(=O)c2c1=O | -19.6%
O=C1C(C=NC2CC2)=C(O)c2ccccc21 | 6.75%
Cc1ccc(-n2c(SCC(N)=O)nnc2-c2ccc(S(=O)(=O)N3CCCCC3)cc2)c(C)c1 | -52.7%
CCOC(=O)CCCNC(=O)CN1C(=O)NC(c2ccccc2)(c2ccccc2)C1=O | -17.9%

Structure (SMILES) | hERG current change (%, negative = inhibition) at 10uM
Cc1nnc(NC(=O)c2ccc(-c3ccc([N+](=O)[O-])cc3)o2)s1 | -11.7%
CCOP(=O)(OCC)/C(C#N)=C(\O)c1ccc(OC)cc1 | -4.25%
Cc1cc(C)n(-c2c(F)c(F)c(CN3CCCCC3)c(F)c2F)n1 | 3%
CCn1c(-c2ccc(Cl)cc2)n[nH]c1=S | 13.2%
CSCCC(NC(=O)c1cc(C(C)(C)C)oc1C)C(=O)O (stereo not shown) | 14%
O=S(=O)(c1cccc(COc2c(Cl)cccc2Cl)c1)N1CCOCC1 | -12%
COc1ccccc1C(=O)Nc1ccnn1C1CCN(C2CCSCC2)CC1 | -70.9%
O=[N+]([O-])c1cc(-c2csc(NC(CO)c3nc4ccccc4n3CCOCCO)n2)ccc1Cl (stereo not shown) | -8.63%
CCCC[C@H]1COCCS(=O)(=O)N1Cc1ccc(C)cc1 | 9.87%
COc1cc(/C=N/N2CCN(c3ccc(Cl)cc3)CC2)cc(OC)c1OC(C)=O | 9.63%
CCCOC(=O)CSC1=C(C#N)C(c2ccc3c(c2)OCO3)CC(=O)N1 (stereo not shown) | -1.72%
COc1ccc(CNC(=O)C2=CC(c3ccc(C)cc3)=NS(=O)(=O)N2C)cc1 | -9.69%
COc1ccccc1OP(=O)(Nc1ccc(Br)cc1)Oc1ccccc1OC | 16.3%
CC1CC(C)CN(S(=O)(=O)c2ccc(C(=O)NCc3ccco3)cc2)C1 (stereo not shown) | -13.3%
COc1cc(CN(C2CCCCC2)S(=O)(=O)c2ccc(S(=O)(=O)N(C)C3CCCCC3)cc2)cc(OC)c1OC | -3.47%
O=C(NCc1ccccn1)C1CCCN(S(=O)(=O)c2ccc(Br)cc2)C1 (stereo not shown) | -26.6%
C/C(CC(C)(C)C1CCCCC1)=N\NC(N)=S | 14.6%
C=C[C@@H]1c2c(F)cccc2N(S(=O)(=O)c2ccc(C)cc2)[C@H](c2ccc(C(=O)OC)cc2)C1(C#N)C#N | 24.9%
Cc1cc(C)cc(NC(=O)C2CCC(CNC(=O)[C@@H]3Cc4ccccc4CN3)CC2)c1 (stereo partly shown) | 0.322%
O=C(Cc1ccccc1)Nc1ccc(F)cc1 | 22.3%
COc1ccc(CCN(C)C(=O)c2cc(S(=O)(=O)NCc3ccccc3)ccc2C)cc1OC | -31.1%
COc1ccc(C(Nc2ccccc2)P(=O)(Oc2ccccc2)Oc2ccccc2)cc1 (stereo not shown) | 15.2%
